Out of some 310,000 compounds screened, about 14,000 (4.5%) showed an effect of 50% or more. The effect is printed as a negative number. The list shows a part of the results.
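Note: peak tail current of the secondary pulse compared with the same well before compound.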

The target in this assay is human ether-à-go-go-related gene (hERG) potassium channel (human, UniProt Q12809). In words: primary screen, population patch clamp on CHO cells stably expressing hERG.
Chain of human ether-à-go-go-related gene (hERG) potassium channel (Q12809 whole entry, looked up): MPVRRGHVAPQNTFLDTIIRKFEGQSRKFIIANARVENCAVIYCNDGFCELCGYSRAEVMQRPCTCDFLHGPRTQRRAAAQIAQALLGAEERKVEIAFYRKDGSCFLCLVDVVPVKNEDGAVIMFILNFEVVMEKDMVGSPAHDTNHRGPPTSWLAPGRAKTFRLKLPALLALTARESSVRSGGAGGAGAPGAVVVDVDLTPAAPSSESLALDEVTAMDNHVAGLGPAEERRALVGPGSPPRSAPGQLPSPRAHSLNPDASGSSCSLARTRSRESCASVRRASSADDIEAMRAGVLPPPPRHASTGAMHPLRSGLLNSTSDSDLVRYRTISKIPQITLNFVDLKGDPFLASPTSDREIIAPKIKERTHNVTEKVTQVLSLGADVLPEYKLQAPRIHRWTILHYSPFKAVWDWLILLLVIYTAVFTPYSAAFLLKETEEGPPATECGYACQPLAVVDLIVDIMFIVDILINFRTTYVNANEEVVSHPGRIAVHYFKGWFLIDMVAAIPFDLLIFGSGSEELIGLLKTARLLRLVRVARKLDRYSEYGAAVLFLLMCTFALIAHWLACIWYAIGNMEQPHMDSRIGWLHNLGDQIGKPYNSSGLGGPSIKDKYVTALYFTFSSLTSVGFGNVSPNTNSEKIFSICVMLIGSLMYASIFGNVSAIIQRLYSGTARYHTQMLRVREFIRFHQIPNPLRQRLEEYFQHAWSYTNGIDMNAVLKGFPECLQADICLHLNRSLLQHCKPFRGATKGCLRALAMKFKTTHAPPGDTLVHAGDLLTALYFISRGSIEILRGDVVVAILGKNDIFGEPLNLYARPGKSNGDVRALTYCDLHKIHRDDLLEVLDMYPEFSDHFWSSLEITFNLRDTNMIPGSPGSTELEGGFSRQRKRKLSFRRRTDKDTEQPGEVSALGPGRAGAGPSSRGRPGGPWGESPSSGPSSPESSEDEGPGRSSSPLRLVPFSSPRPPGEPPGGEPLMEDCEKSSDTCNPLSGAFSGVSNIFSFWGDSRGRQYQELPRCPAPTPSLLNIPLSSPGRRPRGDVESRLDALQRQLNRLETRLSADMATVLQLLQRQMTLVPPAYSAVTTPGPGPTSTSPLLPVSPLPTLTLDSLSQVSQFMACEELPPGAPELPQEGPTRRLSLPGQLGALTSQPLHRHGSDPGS
For the molecule `O=C(NNC(=O)C1C2C=CC(C2)C1C(=O)O)c1ccccc1` (centres unmarked), the “hERG current change (%, negative = inhibition) at 10uM” value was determined as 26.2%.

`O=C(NC1CCCC1)c1cc2c(ccc3ccccc32)o1`: the “hERG current change (%, negative = inhibition) at 10uM” value is reported as 8.26%. In the case of `Cc1cccc(NS(=O)(=O)c2ccc(Br)s2)n1` it was -3.96%; in that of `Cc1sc2nc[nH]c(=S)c2c1-c1ccccc1`, 17.4%. In the case of `COc1cccc(C(=O)NOCc2ccccc2)c1OC` it was 0.772%; in that of `Cc1ccc(S(=O)(=O)Oc2ccc(/C=N/NC(=O)c3ccncc3)cc2)cc1`, -3.34%.

As to `COCCN(C(=O)COC(=O)c1cccc2ccccc12)c1c(N)n(Cc2ccccc2)c(=O)[nH]c1=O`, the “hERG current change (%, negative = inhibition) at 10uM” value is -0.159%. In the case of `S=c1nc(-c2ccccc2Br)[nH][nH]1`, the “hERG current change (%, negative = inhibition) at 10uM” value is 18.9%.

Turning to `CCCCOc1ccc(/C(O)=C2/C(=O)C(=O)N(CCCOC)C2c2ccncc2)cc1C` (centres unmarked), the “hERG current change (%, negative = inhibition) at 10uM” value is recorded as -5.25%. Take `Cc1cc2cc(CNC(=O)c3ccc(S(=O)(=O)N4CCOCC4)cc3)ccc2n1C`: the “hERG current change (%, negative = inhibition) at 10uM” value worked out at 13.1%. In the case of `COC(=O)c1cc(Br)cn1S(=O)(=O)c1ccccc1` it was 10.4%; in that of `COc1ccc(CC(=O)NNC(=O)Cc2ccc(OC)cc2)cc1`, 41.5%. In the case of `Cc1ccccc1C(=O)NCC(=O)OCCCOC(=O)CNC(=O)c1ccccc1C`, the “hERG current change (%, negative = inhibition) at 10uM” value is given as 1.25%. Consider `C=CCn1c(SCC(=O)Nc2ccc3c(c2)OCO3)nnc1-c1ccccc1OC`, for which the “hERG current change (%, negative = inhibition) at 10uM” value is recorded as -7.02%. In the case of `CCCCn1c(N)c(N(CC)C(=O)c2ccc(C#N)cc2)c(=O)[nH]c1=O` it was 19.5%; in that of `COC(=O)C1CCN(C(=O)c2ccccc2NC(C)=O)CC1`, 16.8%; in that of `Cn1c(=O)c2ncn(CC(=O)Nc3ccc4c5c(cccc35)CC4)c2n(C)c1=O`, -0.241%. In the case of `Cc1c(-c2ccccc2)oc2c(C(=O)OCC(=O)Nc3cccc(F)c3)cccc2c1=O` it was -16.3%; in that of `O=C(NC1CCSC1=O)C1CC(=O)N(c2ccc(F)cc2)C1` (centres unmarked), 13.9%; in that of `CC(CCc1ccccc1)NCc1cccc2ccccc12.O=C(O)C(=O)O` (centres unmarked), -60.9%. In the case of `Cc1cccc(/C(N)=N/OC(=O)Cc2cccc3ccccc23)c1` it was 11.1%; in that of `OC(CSc1ccccc1Cl)CN1CCN(c2ccccc2F)CC1` (centres unmarked), -30.7%.

As for `O=C(O)c1ccc(CSc2nc3ccc(N4C(=O)C5C6C=CC(C6)C5C4=O)cc3s2)cc1` (centres unmarked), the “hERG current change (%, negative = inhibition) at 10uM” value is recorded as -23.6%. In the case of `CCc1ccc(N(C(=O)c2snc(C(N)=O)c2N)C(C(=O)NC2CCCC2)c2ccncc2)cc1` (centres unmarked) it was 12.4%; in that of `O=C(NC(=S)Nc1ccc2oc(-c3ccncc3)nc2c1)c1ccccc1F`, 13.6%. In the case of `Cc1ccc(NC(=O)CSCC(=O)NC2(C)CCS(=O)(=O)C2)cc1` (centres unmarked) it was 5.44%. Take `Cc1cc(-c2ccc(S(=O)(=O)N3CCN(c4ccccc4F)CC3)s2)on1`: the “hERG current change (%, negative = inhibition) at 10uM” value came to 15.8%. In the case of `NNC(=O)Cn1c(COc2ccc(Cl)cc2)nc2ccccc21` it was -9.34%. In the case of `Cc1ccc(NC(=O)COc2ccc(Br)cn2)cc1` it was 15.9%; in that of `Cc1oc(-c2ccccc2)nc1CN1C(=O)C(C)N=C(c2ccccc2F)c2cc(Cl)ccc21` (centres unmarked), -5.78%; in that of `O=C(NCC1CCCO1)C1c2ccccc2C(=O)N1C1CCCCCC1` (centres unmarked), -10.5%. In the case of `CCCC1(C(=O)O)NC(c2cccc(OC)c2O)C2C(=O)N(c3ccccc3)C(=O)C21` (centres unmarked) it was -1.3%.

For `COc1ccc(F)cc1CN1CCN(CC(=O)N2CCc3ccccc32)CC1`, the “hERG current change (%, negative = inhibition) at 10uM” value is on record as -48.1%. In the case of `CCCOc1ccccc1N1C(=O)CC(N(O)c2ccccc2)C1=O` (centres unmarked) it was 7.17%; in that of `O=C(NCC1CCCO1)c1onc(CSc2ccc(Cl)cc2)c1C(=O)O` (centres unmarked), 14.4%; in that of `Cc1cccc(NC(=O)c2cc(C)nc3ccccc23)c1`, 14.7%. In the case of `Cc1c(C(=O)N2CCN(C)CC2)oc2c1C(=O)CC(C)(C)C2` it was 4.7%; in that of `Cc1cc(OCc2cc(C(=O)NCc3cc(C(C)C)no3)no2)cc(C)c1Cl`, 9.79%; in that of `Cn1c(=O)c2c(ncn2C)n(C)c1=O`, 10.1%. In the case of `O=C(NCCCN1CCCC1=O)c1ccc(S(=O)(=O)Nc2ccccc2)cc1` it was 0.806%. In the case of `CCS(=O)(=O)N1Cc2ccccc2CC1C(=O)Nc1ccc(OC)cc1` (centres unmarked), the “hERG current change (%, negative = inhibition) at 10uM” value was 6.83%. In the case of `CSc1cccc(NC(=O)CN(C)S(=O)(=O)c2ccc(C)cc2)c1` it was -32.8%.

Take `N#CC1=C(N)Oc2cc(O)ccc2C1C1CCCCC1` (centres unmarked): the “hERG current change (%, negative = inhibition) at 10uM” value came out at 9.66%. For the molecule `COc1ccc(N(CC(=O)N2CCCCC2)S(=O)(=O)c2ccccc2)c(OC)c1`, the “hERG current change (%, negative = inhibition) at 10uM” value was found to be 2.74%. In the case of `COC(=O)c1cc(C)sc1NC(=O)C1CC(=O)NN1Cc1ccccc1` (centres unmarked) it was -17.3%; in that of `CC(=O)NN1C(=O)c2ccccc2NC1c1ccoc1` (centres unmarked), 14.1%; in that of `CCC1NC(=S)N(C2CCCCC2)C1=O` (centres unmarked), 2.1%. As for `Cc1ccc(S(=O)(=O)N2CCOC2CNC(=O)C(=O)NCCc2c[nH]c3ccccc23)cc1` (centres unmarked), the “hERG current change (%, negative = inhibition) at 10uM” value was -27.2%. Take `COc1cc(C(CCN2CCCC(C)C2)c2c(OC)cc(OC)c3c(-c4ccccc4)cc(=O)oc23)cc(OC)c1OC` (centres unmarked): the “hERG current change (%, negative = inhibition) at 10uM” value is recorded as -38.7%. In the case of `CCOC(=O)c1sc(=NC(=O)c2ccc(F)cc2)n(C)c1C` it was 10.6%; in that of `O=C(CNC(=O)c1ccco1)OCC(=O)c1ccc(Cl)cc1Cl`, 5.54%; in that of `Cc1ccccc1NC(=O)C1CCC(C)(C(=O)O)C1(C)C` (centres unmarked), 21.6%. As for `O=C(COC(=O)CNC(=O)C1CCCCC1)NCc1ccccc1`, the “hERG current change (%, negative = inhibition) at 10uM” value is -0.223%. In the case of `CCOC(=O)c1cc2occc2n1CC(=O)Nc1ccc(OC)cc1OC` it was -15%; in that of `c1ccc2c(c1)[nH]c1c(N3CCCC3)ncnc12`, -15.2%; in that of `COc1cc(/C=N/O)ccc1Oc1ccc([N+](=O)[O-])cc1[N+](=O)[O-]`, -45.9%.

The values above are taken from PMC4336329 (PLoS ONE, 2015).
